# Whole data set: some 33,000 sequences, median “E-score (-0.5 to 0.5)” near -0.056, cut for the highest 2% near 0.38. The list shows a part of the results.
# Target: Stb4 (UniProt P50104)
# Assay: PBM E-score (8-mer binding enrichment) (E-score (-0.5 to 0.5)); higher = stronger / more preferred TF binding; most listed sequences are background and not binding sites
# Conditions: protein concentration: 200 nM; construct: GST-DNA-binding domain
# Protocol: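 Universal 'all 10-mer' protein binding microarrays (Agilent AMADID 015681) probed with GST-tagged S. cerevisiae TFs (full-length or DBD) made by in vitro transcription/translation (PURExpress), about 100-200 nM. Bound TF was detected with fluorescent anti-GST. Each ungapped 8-mer (which stands for itself and its reverse complement) is scored by the PBM enrichment score (E-score), a modified Wilcoxon-Mann-Whitney statistic from -0.5 to +0.5, computed with the Universal PBM Analysis Suite. Scale: above 0.35 generally sequence-specific binding.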
row,Sequence,PBM E-score
1,CCTACCTC,-0.136
2,CATGTCTC,0.106
3,CAAGGTAC,-0.233
4,CGTCTGAG,-0.171
5,ATAATTGC,-0.0283
6,CAACGTAA,-0.32
7,CGATAAGA,0.0405
8,AGAGTTGG,-0.25
9,GGTGGCAA,-0.193
10,ATACGTAC,-0.0684
11,ATTACAGA,0.0536
12,AAGAAGTG,0.107
13,CGTTCATC,0.0906
14,GACTTCTA,-0.19
15,AGGCAGAC,-0.1
16,ACTCGACT,-0.293
17,CCTAAGTC,-0.0864
18,AGTGAAAT,-0.152
19,GAGCCCAC,0.0434
20,CCTGAACA,-0.0529
21,ACGGTGGA,-0.132
22,CTGGCCTC,0.0578
23,CCTCTAAG,-0.248
24,GGGCGTAA,0.0334
25,CCCTGAGC,-0.0704

row,Sequence,PBM E-score
1,ACTTCACC,0.0769
2,AGCTTATA,-0.114
3,CATTGGAA,-0.16
4,ACCATCAG,0.0151
5,CAAAGTAG,-0.128
6,AATCTCCA,-0.184
7,CGGGGGAC,0.114
8,ACTATAGG,-0.264
9,GGCCTCTA,-0.341
10,GAGATAGA,-0.0353
11,TCCATGGA,0.0285
12,AAATGCAC,0.121
13,TATGCCCA,-0.104
14,ATCAAGTG,-0.117
15,TAGTGTAA,-0.149
16,CCATATTA,-0.136
17,AACTTCAG,-0.0741
18,AGGAGTTC,-0.132
19,GTGATTGA,-0.028
20,CGCAAACC,-0.0671
21,GGTTGAAA,0.0435
22,AAGTGTAC,-0.141
23,AAACCCGA,0.403
24,ACCTGCTG,-0.0476
25,AAGGAAGA,-0.126

row,Sequence,PBM E-score
1,CCCATGTA,-0.099
2,CGCGAGAC,-0.0463
3,AGGCATGC,-0.033
4,ATTGAGGA,-0.116
5,AAGGGTGG,-0.192
6,AGCCACCA,-0.194
7,ATATATAG,0.0925
8,TCTAATAA,-0.311
9,ACGTATGC,-0.129
10,ACCCTGAA,-0.204
11,AGCAACGA,-0.0782
12,ATTCATGC,-0.0375
13,GTTCGCTA,-0.082
14,GGCAAGAA,0.149
15,GGGGCACA,-0.0254
16,GAGCAGGA,-0.11
17,GATACGCA,-0.133
18,GTTCTTTA,-0.0245
19,TAAGAACA,0.0187
20,ACACAGTG,-0.0901
21,GATCAACC,0.0776
22,GGCGATAC,0.00552
23,TCGCAAAA,-0.122
24,TCGCTCAA,-0.0412
25,CTGGGATA,-0.0428

row,Sequence,PBM E-score
1,AATGATGA,-0.0926
2,TCGTTTAA,-0.196
3,AGAATTTA,-0.0683
4,TCGCGACA,-0.193
5,AAGCATGA,-0.151
6,CTTACCGA,0.393
7,CCAGGGGA,-0.0484
8,CCAGTCTC,-0.129
9,GCCAAGCC,-0.0262
10,CCACCACG,-0.109
11,AACCTCAC,-0.155
12,ATATCATC,-0.132
13,CTAAACCA,-0.0531
14,AATGTGAA,-0.11
15,ACGGATTA,0.145
16,ACTGCGCT,-0.185
17,TCGTACCA,-0.0932
18,AAAGCCTG,-0.151
19,GCGTTGCA,-0.051
20,GCCTCGAA,-0.0521
21,TAGGCCTA,-0.384
22,ATAGGGAC,-0.0117
23,ACTCTGGA,-0.11
24,CTGAATTC,-0.111
25,CCTAGAAG,-0.144

row,Sequence,PBM E-score
1,ATGTTCCA,-0.0991
2,AGGCTTCA,-0.112
3,ACTGGAGG,-0.0802
4,AGATAGTG,-0.0913
5,GCTACCAA,-0.00579
6,GCCGCGCC,0.0907
7,AATGATTG,-0.164
8,AGGTTCGA,-0.0841
9,ACAAAGCC,0.0806
10,TAAACACA,-0.179
11,AGGATCCG,0.395
12,ATGTCAAC,0.0147
13,AGTCGGAA,0.451
14,TCCAGCAA,-0.345
15,GGGTGACA,0.156
16,CGGTTTAG,0.239
17,AGCAGAAT,0.00856
18,ATCACGTC,0.0144
19,AGACTGTA,-0.207
20,AATGGTGG,-0.0674
21,ACTGTCGG,0.279
22,AATGAAAA,0.0769
23,TCCTGAAA,-0.044
24,AGGTTATC,-0.0973
25,CCGTCCAC,0.143

row,Sequence,PBM E-score
1,CTACGATA,-0.175
2,GTGGCGCA,-0.22
3,GCTCTAAA,-0.222
4,ATAAAAGA,-0.059
5,CCTATTCC,0.124
6,GCGTCGGA,0.449
7,AGATCGGG,0.28
8,CAAGATTC,-0.0361
9,ACGCTTGG,-0.214
10,CTGCTTGA,-0.213
11,AGATAGAC,-0.188
12,GAATCAGA,0.0234
13,ATATATGC,0.13
14,AGCTAACT,0.0148
15,ACAGTATC,-0.119
16,GACGGACC,0.12
17,GCTATGGA,-0.0234
18,AGGGAACT,0.00217
19,ATGAATAA,-0.163
20,CGCGCATC,0.0736
21,ACGCAGAT,0.162
22,CTCCTTCC,0.128
23,ATCTGGGA,-0.137
24,CAAGGGCG,-0.152
25,CCACCCAA,-0.154

row,Sequence,PBM E-score
1,GACGATGC,-0.101
2,AATAACGG,0.123
3,TCGCGAGA,-0.0707
4,AGCTACGG,-0.0387
5,AGTCAAGC,-0.171
6,ACGCGCCA,0.0029
7,ATTTTTAA,0.155
8,CAAAGGAC,-0.267
9,CGATGGTA,-0.0298
10,GCAACACC,0.0295
11,AATGGGCA,-0.208
12,CAACTATC,0.116
13,GCCACAGA,-0.0656
14,CGAAACCG,0.273
15,CAACAAGG,-0.101
16,CTGTGCAC,-0.106
17,AAAAATGA,-0.123
18,GCCGTTAC,0.197
19,CTCCTGTC,-0.226
20,ATAAGGAG,0.0336
21,GGTGGCAC,-0.0754
22,CTCCATCA,-0.00696

# From the supplement of paper PMC3334620
